# In PubChem BioAssay AID686979 (National Center for Advancing Translational Sciences (NCATS), 2013):
# Where “and” joins values, the source holds several entries; their conditions need not be identical. Identical values can stand only once. Hit rate of the full screen: of about 420,000 compounds, about 50,000 (12%) were called active. This list was built around the results that the source calls inconclusive (neither active nor inactive); the mix of calls is not that of the screen. The call rests on the fitted dose curve; in most records, active means well fitted inhibition curve with a large enough effect; inconclusive means small, poorly fitted or top-dose-only effect; inactive means flat fitted curve, though single readings scatter. Potencies of inconclusive entries are doubtful fits and often do not repeat.
# Assay: qHTS for Inhibitors of human tyrosyl-DNA phosphodiesterase 1 (TDP1): qHTS in cells in presence of CPT; further: nearly all actives have a fitted effect of over 55% in size
# Details: chicken DT40 Tdp1-/-;hTDP1 cells + 20 nM CPT, ATP luminescence, 48 h; activity change, negative = growth inhibition: at 46.2 µM (top of the series) unless noted
# Summary of the method: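 Chicken DT40 Tdp1-/- cells complemented with human TDP1, 400 cells/well, exposed to compounds plus 20 nM camptothecin for at least 48 h at 37 C; viability read as ATP content by CellTiter-Glo luminescence.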
# On the % scale 0 is the no-effect control and ±100 the full control effect; potency means the concentration at half of the fitted maximal effect; tags describe the fitted curve by direction and shape.
SMILES,Potency,"activity change, negative = growth inhibition"
COCCOC(=O)C1=C(C)NC2=C(C(=O)CC(c3cccs3)C2)C1c1ccsc1 (stereo not given),"inconclusive: 29.1 µM [inhibitor, single point]",
O=c1c2sc3nc(N4CCOCC4)c4c(c3c2nnn1Cc1ccccc1)CCCC4,active: 8.2 µM,
CCc1ccc(-c2nc(CS(=O)CC(=O)NCc3ccccc3)c(C)o2)cc1 (stereo not given),inactive,
Cc1ccc(N2CC(C(=O)Nc3cccnc3)CC2=O)cc1Cl (stereo not given),inactive,
CCC(=O)Nc1nc2cc(OC)ccc2s1,"inconclusive: 20.6 µM [inhibitor, partial curve]",
O=[N+]([O-])c1cc(CN2CCCCCC2)ccc1O,inactive,
COC(=O)CCCC(=O)N1CCCC(CCC(=O)NCc2ccc(F)c(F)c2)C1 (stereo not given),inactive,
Cn1sc(NC(=O)c2ccc(Cl)cc2)nc1=O,,inconclusive: -35.4% [inhibitor]
Cn1c(Oc2ccccc2NCc2cc(Br)ccc2O)cc(=O)n(C)c1=O,active: 18.4 µM,
COc1ccc(N2CCN(C(=O)c3ccc(Oc4ccc(C(F)(F)F)cn4)cc3)CC2)cc1,"inconclusive: 25.9 µM [inhibitor, single point]",
O=C(Oc1ccc[nH]c1=O)c1cccc(Cl)c1,inactive,
COc1cc(C(=O)NNC(=O)/C=C/c2ccccc2)cc(OC)c1OC,inactive,
COc1ccc(-c2noc(=O)n2Cc2ccccc2Cl)cc1,inactive,
Cc1nc(N)[nH]c(=O)c1Oc1cccc(C(F)(F)F)c1,inactive,
O=S(=O)(NCCSc1nnc(-c2ccco2)n1-c1ccccc1)c1ccccc1,"inconclusive: 18.4 µM [inhibitor, single point]",
O=C(c1[nH]c(C(F)(F)F)nc1-c1ccccc1)N1CCCN(Cc2ccc(F)cc2)CC1,inactive,
O=C(CCNS(=O)(=O)c1ccc(OC(F)(F)F)cc1)N1CCN(S(=O)(=O)c2cccc(F)c2)CC1,"inconclusive: 25.9 µM [inhibitor, single point]",
O=C(Nc1ccncc1)c1cc(S(=O)(=O)N2CCCC2)ccc1Cl,"inconclusive: 29.1 µM [inhibitor, single point]",
CC1(C)CC2CC(C)(CN2S(=O)(=O)c2ccc(C(=O)Nc3cccc(S(=O)(=O)N4CCOCC4)c3)cc2)C1 (stereo not given),active: 4.11 µM,
O=C(Nc1nccs1)c1ncc(Cl)c(Cl)c1Cl,active: 20.6 µM,
COc1ccc(-c2noc(COc3ccc(Br)cc3C)n2)cc1OC,"inconclusive: 20.6 µM [inhibitor, partial curve, poor fit]",
Cc1ccc(-c2nc3ccc(Br)cn3c2Cc2ccsc2)cc1,active: 14.6 µM,
Cn1c(C(=O)Nc2ccc3c(c2)OCCO3)cc2c(=O)n(C)c3ccccc3c21,active: 13 µM,
CC(C)CCC(CCNCc1ccccn1)c1ccc2c(c1)OCO2 (stereo not given),"inconclusive: 25.9 µM [inhibitor, partial curve, poor fit]",

SMILES,Potency,"activity change, negative = growth inhibition"
COc1cc(Br)c(C(C)NC(=O)c2cccc(Br)c2)cc1OC (stereo not given),active: 25.9 µM,
C=CCNC(=S)Nc1ccc(Cl)cc1,"inconclusive: 29.1 µM [inhibitor, single point]",
COc1ccc(OC)c(NC2=C(Cl)C(=O)N(Cc3ccccc3)C2=O)c1,"inconclusive: 29.1 µM [inhibitor, single point]",
COc1cc(CC(=O)NCCCc2ccccc2)cc(OC)c1OC,"inconclusive: 29.1 µM [inhibitor, single point]",
CCCN1CCN(C(=O)c2oc3ccccc3c2NC(=O)COc2ccc(OC)cc2)CC1,"inconclusive: 20.6 µM [inhibitor, single point]",
COc1ccc(-c2nc(C(=O)NCCCN3CCOCC3)cc3c2[nH]c2ccccc23)cc1OC,active: 13 µM,
COC(=O)c1ccc(CSC2=NC[C@@H]3[C@@H]4C(=O)N(C)C(=O)[C@@H]4[C@](Cc4ccccc4)(C(=O)OC)N23)cc1,active: 16.4 µM,
C#CCNC(=O)C1=C[C@H](c2ccc(C(F)(F)F)cc2)C[C@H](OCCCCO)O1,"inconclusive: 16.4 µM [inhibitor, single point]",
CCOC(=O)C1(C)NC(c2ccccc2F)C2C(=O)N(c3cccc(C(C)=O)c3)C(=O)C21 (stereo not given),active: 23.1 µM,
CN1C(=O)CC(c2ccco2)Sc2ccccc21 (stereo not given),,inconclusive: -37.6% [inhibitor]
CCc1ccc(OCC(=O)Nc2ccc(-c3nc4ncccc4o3)cc2)cc1,inactive,
COc1cc(C(=O)NCc2ccc(S(N)(=O)=O)cc2)ccc1OCC(=O)N1CCOCC1,inactive,
CCN(CC)S(=O)(=O)c1ccc(C(=O)NCC(c2cccs2)N2CCOCC2)cc1 (stereo not given),"inconclusive: 2.59 µM [inhibitor, full curve]",
C1CCN2CC3CC(CN4CCCC[C@@H]34)[C@H]2C1,inactive,
Cc1ccc(NC(=O)CCNS(=O)(=O)c2cc(Br)cnc2N)cc1Cl,"inconclusive: 29.1 µM [inhibitor, single point]",
O=C(c1cc2cc(Cl)ccc2[nH]1)N1CCc2ccccc2C1,"inconclusive: 14.6 µM [inhibitor, partial curve]",
Cc1ccc(NC(=O)CN2CCC(NC(=O)C3CCCCC3)CC2)c(Br)c1,"inconclusive: 29.1 µM [inhibitor, single point]",
CC(C)[C@@H](C(=O)NCc1ccco1)N1C(=O)N2CCc3c([nH]c4ccccc34)[C@@]2(C)C1=O,"inconclusive: 18.4 µM [inhibitor, single point]",
CCOC(=O)/C(C#N)=C\c1cc(OC)c(OC)cc1[N+](=O)[O-],"inconclusive: 18.4 µM [inhibitor, single point]",
Cc1nc(Nc2ccc(S(=O)(=O)N3CCCCC3C)cc2)c2nnn(Cc3ccccc3)c2n1 (stereo not given),"inconclusive: 25.9 µM [inhibitor, single point]",
Cc1c(-c2nc(N)nc(Nc3ccccc3F)n2)oc2ccccc12,"inconclusive: 29.1 µM [inhibitor, single point]",
Cc1cc(O)ccc1N/C=C(\C#N)c1nc2ccccc2o1,"inconclusive: 18.4 µM [inhibitor, single point]",
O=C(CN1CCC(n2nnc3cc(F)ccc32)CC1)N1CCCc2ccccc21,"inconclusive: 14.6 µM [inhibitor, single point]",
CCN(Cc1ccccc1)C(c1cccs1)c1nnnn1C1CCCCC1 (stereo not given),"inconclusive: 29.1 µM [inhibitor, single point]",

SMILES,Potency,"activity change, negative = growth inhibition"
Cc1ccc2c(c1)nnn2C1CCN(CC(=O)N2c3ccccc3CC2C)CC1 (stereo not given),"inconclusive: 29.1 µM [inhibitor, single point]",
O=C(O)CCCC1(C(=O)O)CCCC1,inactive,
COc1ccc(-c2nnc(SCC(=O)N3CCCc4ccccc43)o2)cc1OC,"inconclusive: 23.1 µM [inhibitor, single point]",
OCCOCCN1CCN(C(c2ccccc2)c2ccc(Cl)cc2)CC1 (stereo not given),"inconclusive: 29.9 µM [inhibitor, single point] and inconclusive: 18.4 µM [inhibitor, single point]",
COc1cccc(-c2ccc(SCC(=O)NC3CCCCC3)nn2)c1,"inconclusive: 23.1 µM [inhibitor, single point]",
CCc1ccc(N(C(=O)c2snc(C(N)=O)c2N)C(C(=O)NCCC(C)C)c2c[nH]c3ccccc23)cc1 (stereo not given),"inconclusive: 16.4 µM [inhibitor, single point]",
COc1ccc(NC(=O)c2ccc(Cl)c(S(=O)(=O)N3CC(C)OC(C)C3)c2)cn1 (stereo not given),"inconclusive: 20.6 µM [inhibitor, single point]",
c1csc(-c2nn3cnnc3c3ccccc23)c1,"inconclusive: 20.6 µM [inhibitor, single point]",
COc1ccc(-n2c(=O)c(C)nc3cnc(N(C)C)nc32)cc1,inactive,
O=C(Nc1ccc(Cc2ccncc2)cc1)C1CCC(N2C(=O)C3C4C=CC(C5CC45)C3C2=O)CC1 (stereo not given),active: 18.4 µM,
CC(Oc1ccccc1)C(=O)N1CCN(c2ncccn2)CC1 (stereo not given),inactive,
COc1cc(OCc2ccccc2)c(C(=O)/C=C/c2ccc3c(c2)OCO3)c(OC)c1OC,"inconclusive: 29.1 µM [inhibitor, single point]",
O=C(O)c1ccc(N/N=C/c2ccc(-c3ccccc3)cc2)cc1,inactive,
CCOC(=O)c1c(NC(=O)C(=O)N/N=C/c2ccc(OCC)cc2)sc2c1CCCCC2,"inconclusive: 25.9 µM [inhibitor, single point]",
O=C1C(=O)c2ncccc2-c2cccnc21,active: 5.96 µM,
CCOC1=C2[C@@H](CN(S(=O)(=O)c3ccc(C)cc3)[C@H]2c2ccccc2F)[C@H]2C(=O)N(CC)C(=O)[C@H]2C1,"inconclusive: 18.4 µM [inhibitor, single point]",
OC(CN1C=CCc2ccccc21)c1ccc(Cl)cc1Cl (stereo not given),"inconclusive: 15.8 µM [inhibitor, partial curve]",
COc1ccc(OC)c(S(=O)(=O)N(C)CC(=O)N2CCN(c3cccc(Cl)c3)CC2)c1,"inconclusive: 16.4 µM [inhibitor, partial curve, poor fit]",
CCCCOC(=O)c1ccc(NC(=O)c2cnc3n(c2=O)CCS3)cc1,"inconclusive: 25.9 µM [inhibitor, single point]",
COc1ccc(CCNC(=O)c2ccccc2NC(=O)CN2CCN(c3ccccc3O)CC2)cc1,"inconclusive: 29.1 µM [inhibitor, single point]",
Cn1nc(C(=O)Nc2ccccc2N2CCCC2)c2ccccc2c1=O,"inconclusive: 20.6 µM [inhibitor, single point]",
Cc1ccccc1/C=C/c1cccc[n+]1C,"inconclusive: 16.4 µM [inhibitor, single point]",
